Source: the antibiotic and cytotoxicity screens of Wong et al. (2023)
This is one part of the list.

Tests used:
[1] = test system: HSkMC (human skeletal muscle cells); assay: cytotoxicity call (relative viability < 0.9); details: 10 µM
[2] = test system: HepG2; assay: cytotoxicity call (relative viability < 0.9); details: 10 µM
[3] = test system: S. aureus RN4220; assay: growth inhibition call (relative growth <= 0.2); details: 50 µM

| SMILES | cytotoxicity call [1] | cytotoxicity call [2] | growth inhibition call [3] |
| --- | --- | --- | --- |
| COc1ccccc1-c1ccc2c(c1)O[C@@H](CN(C)C(=O)c1cccnc1)[C@H](C)CN([C@@H](C)CO)S2(=O)=O | inactive | inactive | inactive |
| c1ccc2c(c1)-c1ccc3ccc4cccc5cc-2c1c3c45 | inactive | inactive | inactive |
| C[C@H]1CN([C@@H](C)CO)C(=O)c2cccc(NS(=O)(=O)c3cccs3)c2O[C@H]1CN(C)Cc1ccc(Cl)c(Cl)c1 | inactive | inactive | inactive |
| Cc1noc(C)c1NC(=O)Nc1ccc2c(c1)C(=O)N([C@H](C)CO)C[C@H](C)[C@@H](CN(C)C(=O)Nc1ccc(C(F)(F)F)cc1)OCCCC[C@H](C)O2 | inactive | inactive | inactive |
| COCCOC(=O)N1C(=O)[C@@]2(c3cc(C#CC4(O)CCCCCC4)ccc31)[C@H](c1ccc(OCCO)cc1)N1[C@H](c3ccccc3)[C@H](c3ccccc3)OC(=O)[C@H]1[C@@H]2C(=O)N1CCCCCCC1 | inactive | active | inactive |
| NC(=O)CN1CCOCC1 | inactive | inactive | inactive |
| COC(=O)[C@@H](N)CS | inactive | inactive | inactive |
| OC1C(O)C(O)C(O)C(O)C1O (configuration not stated) | inactive | inactive | inactive |
| N[C@@H](CN(O)[N+][O-])C(=O)O | inactive | inactive | inactive |
| C[C@H]1C/C(=C\N(C)C)C(=O)C1=O | inactive | active | inactive |
| COc1ccc2c3c(n(c2c1)C)[C@@H](CO)N(C[C@]13CN(C1)C(=O)Nc1cccc(c1)F)C(=O)CN1CCOCC1 | inactive | inactive | inactive |
| CC1=C(C(=O)O)N2C(=O)[C@@H](NC(=O)[C@@H](N)c3ccccc3)[C@H]2SC1 | inactive | inactive | inactive |
| COCC(=O)N1C[C@H](C)[C@H](OC)CN(C)C(=O)c2ccc(NC(=O)Nc3cccc(F)c3)cc2OC[C@@H]1C | inactive | inactive | inactive |
| C[C@H]1CN([C@@H](C)CO)C(=O)c2cc(NC(=O)CCCCCC(=O)Nc3ccccc3N)ccc2O[C@@H]1CN(C)C(=O)Nc1cccc2ccccc12 | inactive | inactive | inactive |
| O=C(O)[C@@H]1C2C=CC3(O2)C1C(=O)N1CCS(=O)[C@H]13 (some centres not stated) | inactive | inactive | inactive |
| CN(C)CCCCNC(=O)[C@@H]1C[C@@H]2C(=O)N[C@@H](CCCCN(C)C)C(=O)N2[C@@H]1c1cccc(OCCO)c1 | inactive | inactive | inactive |
| C[C@H]1CN([C@@H](C)CO)C(=O)c2cc(NC(=O)CCCN(C)C)ccc2O[C@H]1CN(C)Cc1ccc(Oc2ccccc2)cc1 | inactive | active | inactive |
| COCC(=O)N1C[C@@H](C)[C@H](OC)CN(C)C(=O)c2ccc(NC(=O)c3cc(C)on3)cc2OC[C@@H]1C | inactive | inactive | inactive |
| CNC[C@@H]1OCCCC[C@@H](C)Oc2ccc(NC(=O)Nc3ccc(C(F)(F)F)cc3)cc2C(=O)N([C@@H](C)CO)C[C@@H]1C | inactive | inactive | inactive |
| CO[C@H](C(=O)N(C)C[C@@H]1OCc2ccccc2-c2c(n(C)c3ccccc23)C(=O)N([C@H](C)CO)C[C@H]1C)c1ccccc1 | inactive | inactive | inactive |
| C[C@@H]1CN([C@@H](C)CO)C(=O)c2cc(NS(=O)(=O)c3cn(C)cn3)ccc2O[C@H]1CN(C)C(=O)NC1CCCCC1 | inactive | inactive | inactive |
| O=C(C[C@@H]1CC[C@@H]2[C@H](COC[C@H](O)CN2S(=O)(=O)c2ccc(F)cc2)O1)NCc1ccc(Cl)c(Cl)c1 | inactive | inactive | inactive |
| Cc1noc(C)c1S(=O)(=O)N(C)C[C@@H]1OCc2cn(nn2)CCCC(=O)N([C@H](C)CO)C[C@H]1C | inactive | inactive | inactive |
| C[C@@H]1CN([C@H](C)CO)C(=O)c2cccc(NC(=O)NC3CCCCC3)c2O[C@H]1CN(C)Cc1ccc(Cl)c(Cl)c1 | inactive | inactive | inactive |
| C[C@H](CO)N1C[C@H](C)[C@@H](CN(C)C(=O)C2CCOCC2)Oc2cc(C3=CCCCC3)ccc2S1(=O)=O | inactive | inactive | inactive |
| Cc1noc(C)c1NC(=O)Nc1ccc2c(c1)CC(=O)N([C@H](C)CO)C[C@H](C)[C@H](CN(C)S(=O)(=O)c1c(C)noc1C)O2 | inactive | inactive | inactive |
| Cc1cc(C(=O)Nc2cccc3c2O[C@H](CN(C)S(=O)(=O)c2cn(C)cn2)[C@H](C)CN([C@@H](C)CO)C3=O)n(C)n1 | inactive | inactive | inactive |
| CCOC(=O)C(=O)c1csc(NC=O)n1 | inactive | inactive | inactive |
| CC(C)(O)[C@@H](O)Cc1cc(O)ccc1O[C@H]1O[C@@H](CO)[C@@H](O)[C@@H](O)[C@@H]1O | inactive | inactive | inactive |
